Measured values as given in the supplement of paper PMC10126150.
Values marked as one replicate rest on one cluster of the flow cell; about a third of the high ones do not repeat.

Test system: ATP
Experiment: switch fluorescence ratio, 500 uM ATP over buffer (Cy3 cluster intensity, sum of 5 cycles each) (fold (ratio)); higher = stronger signal-on switching upon ATP binding; sequences stand for … in TCGTCGGCAGCGTCAGATGTGTATAAGAGACAGTTTTTTTTTTTTTTTTTTTTTTTTT…TC
Conditions: aptamer strand: ATP DNA aptamer (quencher-CACCTGGGGGAGTATTGCGGAGGAAGG + anchor), 100 nM annealed; ATP concentration: 500 uM; one replicate
In short: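 Between each of five buffer/ATP cycles, the flow-cell was stripped with NaOH and re-annealed. Each cycle imaged Cy3-labelled switching-strand clusters, annealed to 100 nM quencher-labelled ATP aptamer on a modified Illumina MiSeq flow-cell, first in selection buffer and then after 15 min with 500 uM ATP at 22 °C. The fluorescence ratio is summed target-cycle over summed buffer-cycle Cy3 intensity per cluster, averaged per switch-domain sequence, with clusters outside 100-1000 RFU excluded.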
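Note: ATP exposure 15 min at 22 °C before imaging.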

Sequence	switch fluorescence ratio
CTGGCATAA	1.15
GTGATCAGCC	1.08
ATCTTGTAAG	0.961
TTATCATCAG	1.02
AAGGACTCC	1.06
GGCCTGCTTC	1.02
TTGGTTAACC	0.993
GACCGTTACC	1.49
TAACGGACGC	1.14
ATGAAGTAGT	1.02
GCGATTTCCT	1.1
GTTAGTGTTA	1.04
CGTTTGGGAA	0.99
CCATATCGGT	1.01
CGACGGCGAT	1.14
CGAGCCGGGT	1.01
AAGGTGGCT	1.05
CCTGATTGGT	0.953
CGTGTAGTAA	0.995
GAACGGGGTA	1.03
TGGTGTGTT	1
TCCTAAGTTG	0.997
AACTACGTGG	1.01

Sequence	switch fluorescence ratio
AGGCGAGGT	1
TAAACGGCGA	1.02
GCAATTACCT	1.48
CTCAGGGCCT	1.02
GTAAGGAGTT	0.971
TCCTAAGGCA	1.05
GGCAATCCAT	1.03
TCAGTTTCGA	1.04
TCTGAAAGT	0.991
ATTGCATACT	1.12
AAGGGTGAAA	0.973
TATCTTTGGT	1.01
TCTATGTGGG	0.983
ACGGCTTGTT	0.983
GGTTTGCACA	1.02
TAGACTAGTT	0.966
ACCTGAGTTG	1.06
AAATCGTAAT	0.991
GAAGGTAGTC	0.947
AGGGCTCACT	0.961
TGGATTAACT	0.996
ATGGAATTGA	1.01
GAAAATAATA	1.01

Sequence	switch fluorescence ratio
AGTCGCAATG	1.65
GCGAAGAC	1.53
ATCGGCGGCC	1
ATAATGACCT	1.47
GCGTCCTAAA	0.957
GTTAACTAGG	0.996
GGATGAGTCT	1.01
CGATATCGGA	0.999
CCCAGGAAAT	1.02
CTGCGAACGG	1.08
GCCATAGGCA	0.987
CATCCTCCGG	2.67
GCGCGCAGAC	1.17
ATTGGAGCA	1.05
ACGGTGGCTC	0.934
CACGCCGGTC	0.998
TGTCTAATGG	1.01
AGGCCGAGGC	0.94
ATAGGAGAAA	0.991
CGACGGACAA	2.6
CCGATTCCGG	1.05
ATGCCGGGTA	0.957
AAAATTTGTA	0.975

Sequence	switch fluorescence ratio
GTTTGACACA	1.02
ATGGACCTCA	1.02
TGTTGTCGGC	0.983
TTTACGCGCG	1.01
GCTGAAATTG	1.03
TGTGGGTGAA	0.995
GCGCCGGTTT	1.05
TCTTTGCATT	1
TTATGTCACA	1.03
GCAGGTATGA	1.03
GGCATTACGA	2.37
TGATTTGGA	1.03
CAGCCAATCA	1.01
CACTTTTTGA	0.932
GAATTATTAG	0.989
TTGATAGTTC	0.978
CACGACTTGA	1.01
TAGGGTGAT	1.08
AACCGAACAT	1.17
GAAGCTCTAA	1.06
GGTTCTAAGC	1.05
TTAGATTGG	1.02
TGTTCAGTAC	1.1

Sequence	switch fluorescence ratio
GCTCTCCTCG	1.13
ACAACGGTCC	1.1
AGATAAGGG	1.03
AAAGCATTTA	0.999
CAGCCCCGAG	1.03
CGTGGGTATG	1.01
ACAAGTGTGG	0.992
GTCGAGCCGC	1.02
TGCACCGTGG	0.959
GTTATATAAA	0.979
AGGTGGCTGG	1.01
TATGCCCGAT	0.969
CAAGGTTAGG	1.02
GATCATAAGC	1.02
CTTCGTCGAC	1.22
CGCTGTGTTG	1.07
CGTCTCGTCG	0.956
ATAGTAGGGT	0.984
ACGAACAGGT	1.1
TCGTCCAAAG	1.11
TCAATCATGA	1.06
GGTGCTTGGA	0.997
CTGGAGATTC	1.03

Sequence	switch fluorescence ratio
TCACTCGGAT	1.08
GACATGCGTA	1.04
AGTTTGATCC	1.01
TGGAGGTTTG	0.947
ACCGCCTGCG	1.06
ATTCTAGGGA	1.02
AACAAAATAG	1.03
CGGCGGACCT	1.11
CGTTATGGAT	0.966
GTGGGCCTTG	1.01
ACTCTTGGCG	1.01
GTGTATTTAA	1
ATTTCTTAAC	0.982
AAATTCATAT	1.04
GATGAAACGC	0.999
TTTCCGTGTC	1.04
GATTAGAACT	1.02
TTCCATTAAT	1.03
CGGGTTGCCA	0.995
ATATCAGCCA	0.99
CTAAGTTTGT	0.995
TAATGTTGGA	0.998
TGGACGCTGG	1.07

Sequence	switch fluorescence ratio
TTGTAAGGCA	1.08
CAAGAGGTGG	1.02
CTCACTGCAG	0.987
GAGGTATAAA	1.01
CTAAAGGGTA	1.03
GATAAGGGCA	0.983
TTTTGACGTA	1.04
CTACGACAGC	1.5
TGTTCTAAAA	1.05
CGGTCGGAGC	1.02
GAGTGTCCCT	0.972
GACGATTTCC	1.09
TGATTGCGA	1.09
GGGCCCATAC	1.01
ACTTTCGATA	1.03
GACCATGGTG	1.14
TCTAGCCCAA	1.02
TCACTAACCG	1.1
ACAATTCCGA	1.05
